To fix the notation:
B1: LINE1-mini (parent)
chain: GGCAGAGCUCAACACAGCGUGGCAAAGUGGCUGUGGCUAGACUGCC

The source gives no read counts; variants with many changes may rest on few reads.

The variants in the data set derive from B1. Kind of data set: self-cleavage, relative activity (ratio to wild type); higher = more cleavage; in vitro, sequencing; the parent is a self-cleaving ribozyme.
As to GGUAGAGCUCAACUAAGCGUGGCAAAGUGGUUGUGGCUAGACUGUC [C3U A14U C15A C31U C45U], the self-cleavage is 0.06.

Consider GGUAGGGGUCAACACAGCGUGGCAAAGUGGCUGUGGCUAGACUGCC [C3U A6G C8G], for which the self-cleavage was 0.02.

Regarding GGUAGAGCUCGACACAGCGUGGCAAAGUGGCUUAGGCUAGACUGCC [C3U A11G G33U U34A], the self-cleavage is 0.03.

As to GGUUGAGCAGAACACAGCGUGGCAAAGUGGCUGUGGCUAGACUGCC [C3U A4U U9A C10G], the self-cleavage is 0.07.

For GGUAGAGCUCAGCACAGCGUGGCAAAGGGGCUGUGGCUAGACUGCC [C3U A12G U28G], the self-cleavage is 0.04.

Turning to GGUAGCGCUCAACACAACGUGGCAAAGGGGCUGUGGCUAGACUGCC [C3U A6C G17A U28G], the self-cleavage is 0.08.

Turning to GGUAGAGCUCAACCAAGCGUGGCAAAGUGGCUAUGGAUAGACUGCC [C3U A14C C15A G33A C37A], the self-cleavage worked out at 0.04.

Take GGUAGAGCUCAGCACAGCGUGGUAAAGUGGCUGUGGCUAGACUGCC [C3U A12G C23U]: the self-cleavage is 0.04.

On to GGUAGCGCUCAGCACAGCGUGUCAAAGAGGCUGGGGCUAUACUGCC [C3U A6C A12G G22U U28A U34G G40U], for which the self-cleavage amounted to 0.

With GGUAGAGCUCGACACAGCGUGGAAAAGUGGCUGCGGCUAGACUGCC [C3U A11G C23A U34C], the self-cleavage was determined as 0.01.

In the case of GGUAGAGCUCAACACCGCGUGGCAAAGUGGCUGUGGCUAGGAUGCA [C3U A16C A41G C42A C46A], the self-cleavage was found to be 0.08.

GGUAGAGCUCUAGACAGCGUGGCAAAGUGGCUGUGGCUAUACUGCC [C3U A11U C13G G40U]: the self-cleavage worked out at 0.01.

For the variant GGUAGUGCUCAACACAGCGUGGCAACGUGGCUGUGGCUAGACUGCC [C3U A6U A26C], the self-cleavage came out at 0.58.

In the case of GGUAGAGCUCCACACAGCUUGGCAAAGUGGCUGUGGGUAGACUGCC [C3U A11C G19U C37G], the self-cleavage was 0.02.

For the variant GGUAGUGCUAAACACAGCGUGGCAAAUUGGCUGUUGCUAGACUGCC [C3U A6U C10A G27U G35U], the self-cleavage was 0.04.

On to GGUAGAGCUCAACUCAGCGUGGCAAAGUGGCUGUGGCUAGACUUCC [C3U A14U G44U], for which the self-cleavage was determined as 0.06.

On to GGUAGCGCUCAACACAGCGCGGCAAAGUGGGUGUGGCUAGACUGCC [C3U A6C U20C C31G], for which the self-cleavage is 0.04.

In the case of GGUAGUGCUCAACCACGCGUGGCAUAGUGGCUGUGGCUAGACUGCC [C3U A6U A14C C15A A16C A25U], the self-cleavage is 0.04.

With GGUAGAGCUCAACGCACCUUGGCAAAGGGGCUGUGGCUAGACUGCU [C3U A14G G17C G19U U28G C46U], the self-cleavage is 0.09.

Consider GGUAGUGCUCAACACGGCGUGGCAAAGUGGCUGUGGCUAGAAUGCC [C3U A6U A16G C42A], for which the self-cleavage came out at 0.21.

For GGUUGAGCUCAACACAUCGUGGCAAAGUGGCUGUGGCUAGUCUGCC [C3U A4U G17U A41U], the self-cleavage was 0.02.

Turning to GGUAGCGCUCAAGACAGCGUGGGAAAGUGGCUGUGGCUAGACUGCC [C3U A6C C13G C23G], the self-cleavage was found to be 0.28.

As to GGUAGAGCUCAUCACAGCUUGGCAAAGUGGCUGUGGCUAGACUGCC [C3U A12U G19U], the self-cleavage stood at 0.18.

Regarding GGUAGAGCUCAACUCAUAGUGGCAAAGUGGCUGUGGCUAGAUUGCC [C3U A14U G17U C18A C42U], the self-cleavage worked out at 0.14.

For the variant GGUAGAGCUCACCACAGCGUGGCAAAGUGGCUGUGACUAGACUGGC [C3U A12C G36A C45G], the self-cleavage turned out to be 2.39.

Turning to GGUAGAGCUCAGCACAGCGUGGCAAACUGGCUGUGGCUAGACUUCC [C3U A12G G27C G44U], the self-cleavage was determined as 0.08.

For GGUAGGGCUCAACACAGCGUGUCAAAGUGGUUGUGGCUAGACUGCC [C3U A6G G22U C31U], the self-cleavage is 0.03.

As for GGUUCAGCUCAACACAGCGUGCCAAAGUGGCUGUGGCUAGACUGCC [C3U A4U G5C G22C], the self-cleavage is 0.19.

For the variant GGUAGAGCUCAACGCAGUGUGGCAUAGUGGCUGUGGCUAGAGUGCC [C3U A14G C18U A25U C42G], the self-cleavage was 0.08.

For GGUAGGGUUCAACACAGCGUGGCAAAGUGGCUGUGGCUAGACUGCA [C3U A6G C8U C46A], the self-cleavage was determined as 0.08.

Regarding GGUAGAGCUCAGGAUAGCGUGGCAAAGUGGCUGAGGCUAGAAUGAC [C3U A12G C13G C15U U34A C42A C45A], the self-cleavage is 0.01.

Regarding GGUAGAGCUCAUCACAGCGUGGCAAAGAGGCUGUGUCUAGACUGCC [C3U A12U U28A G36U], the self-cleavage came out at 0.16.

In the case of GGUUGAGCUCAACACAACGUGGGAAAGUGGCUGUGGCUAGACUGCC [C3U A4U G17A C23G], the self-cleavage was determined as 0.1.

In the case of GGUAGGGCCCAACACAGCGUGGCAGAGUGGCUGUGGGUAGACUGCC [C3U A6G U9C A25G C37G], the self-cleavage was found to be 0.01.

Turning to GGUAGAGCUCUACACAGCGUGACAAAGUGGCUGUGGCUAGACUGCC [C3U A11U G22A], the self-cleavage was 0.32.

As to GGUAGAGCUCAUCACAGCGUGGCAAAGUGGCUGUGGCUAGCCUGCC [C3U A12U A41C], the self-cleavage is 0.03.

On to GGUAGAGCUCAACGCAGCGUGGAAAAGUGGCUGUGUCUAGACUGCC [C3U A14G C23A G36U], for which the self-cleavage was determined as 0.16.

As to GGUAGAGCUCAUCACAGACUGGCAAAGGGGCUGUGGUUAGACUGCC [C3U A12U C18A G19C U28G C37U], the self-cleavage stood at 0.01.

As for GGUAGAGCUCACCACAGCGUGGCAAAGAGGCUGUAGCUAGACUGCC [C3U A12C U28A G35A], the self-cleavage was 0.03.

With GGUUGAGCUCAACACAGCGUUGCAAAGUGGCUGUGGCUAGACUGCC [C3U A4U G21U], the self-cleavage was determined as 0.12.

Turning to GGUAGGGCUCAACACAGCGUGGCAAUGUGGCUGUGGCUAAACUGCC [C3U A6G A26U G40A], the self-cleavage amounted to 0.1.

Take GGUAGAGCUCAUCACAGCGUGGCAUAGUGGCUGUGGCUAGACUGCC [C3U A12U A25U]: the self-cleavage was 0.23.

In the case of GGUUGAUCUCAACACCGCGUGGCAAAGUGGCUGUGCCGAGACUGCA [C3U A4U G7U A16C G36C U38G C46A], the self-cleavage was 0.01.

Regarding GGUUAACCUCAACACAGCGUGGCAAAUUGGCUUUGGCUAGACUGCC [C3U A4U G5A G7C G27U G33U], the self-cleavage came to 0.06.

As for GGUAGAGCUCAGCACAGCGUGACAUAGUGGCUGUGGCUAGACUGCC [C3U A12G G22A A25U], the self-cleavage is 0.05.

Turning to GGUAGUGCUAAACACAGCGUGGCAAAGUGGCUGUGGCUUGACUGCC [C3U A6U C10A A39U], the self-cleavage is 0.02.

In the case of GGUAGAGCUCUAUACAGCGUGGCAAAGUGGCUGUGGCUAGACUGCC [C3U A11U C13U], the self-cleavage worked out at 0.03.

Consider GGUAGAGCUCAGCACAGCGUGGAAAAGUGGCUGUGGCUAGACUGAC [C3U A12G C23A C45A], for which the self-cleavage came out at 0.07.

GGUAGCGCUCUACACAGCGUGGCAAAGUGGCUGUGGCUAGACUGCC [C3U A6C A11U]: the self-cleavage is 0.05.

GGUAGAGCUCAACCCAGCGUGGCAAAGUGGCUGCGGCUAGACUGCC [C3U A14C U34C]: the self-cleavage was determined as 0.08.

GGUAGGGCUCAACACAGCGUGGCUAAGUGGCUGUGUCUAGACUGCC [C3U A6G A24U G36U]: the self-cleavage came out at 0.17.

As for GGUAGUGCUAAACACAGCGUGGCAAAGUGGCUGUAGCUAGGCUGCC [C3U A6U C10A G35A A41G], the self-cleavage worked out at 0.06.

For GGUAGAGCUCAACGCAGCGUAGAAAAGUGGCUGUGGCCAGACUGCC [C3U A14G G21A C23A U38C], the self-cleavage was 0.26.

As to GGUAGGGCUCAACACAGCGUGGCAAAGUGGCGGUGGCUAGACUGCC [C3U A6G U32G], the self-cleavage was determined as 0.1.

In the case of GGUAGAGCUCUACACAGCAUGGCAAAGUGGCUGUGGCUAGACUGCC [C3U A11U G19A], the self-cleavage stood at 0.03.

GGUAGAGCUCAGCACAGCGUUGAAAAGUGGCUGUGGCUAGACUGCC [C3U A12G G21U C23A]: the self-cleavage turned out to be 0.03.

The values are drawn from the RNAGym collection of RNA variant scans (doi:10.7554/elife.90254).
